# Data: the supplement of paper PMC10338343
# ± gives the standard deviation. This is a selection; strong and weak results do not stand in their true shares.
# Tested on: MIWI (PIWIL1) piRISC loaded with L1MC piRNA (30 nt)
# Assay: pre-steady-state target cleavage rate (min^-1); MIWI and MILI are mouse PIWI proteins and EfPiwi is from a freshwater sponge; tags in brackets are library labels; higher = faster piRNA-guided slicing of the target
# Conditions: guide: L1MC piRNA 5'p-UAACUAAAUACUAUGCAAGCUGUAGGUCCU; auxiliary factor: 500 nM mouse GTSF1
# How it was run: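 The pre-steady-state cleavage rate came from a burst-and-steady-state fit to pooled data from three Cleave-'n-Seq trials, in which uncleaved targets were sequenced and normalised to depth and to weakly complementary targets. Each reaction held 0.1 nM transcribed, DNA-blocked target RNA library and 1 nM active affinity-purified piRISC carrying one synthetic guide, with or without 500 nM GTSF1 partner protein, in HEPES–potassium acetate buffer at 33 °C for 0–8 or 0–960 min. k3 was capped at 0.0001 min^-1.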
row,Sequence,pre-steady-state target cleavage rate
1,UCCUGGAUGUGCAAGCAUAGUAUUUAGUUA,0.0116 ± 0.0043
2,UCCUGCUACAGCUUGCAUGAGUAUUUAGUUA,0.00499 ± 0.004
3,UGGUGCUACAGCUUGCAUAGUAUUUUCAAA,0.191 ± 0.032
4,UCCUGGAACAGCUUGCAUAGUAAAAAGUUA,0.0976 ± 0.019
5,UCCUGGAUGUCCUAGCAUAGUAUUUAGAUA,0.00439 ± 0.0033
6,UCCUGGAUGUCCAUGCAUAGUAUUAAGUUA,0.00813 ± 0.0047
7,UCCACCUACAGCUUGCAUUGUAUUUACAAA,0.112 ± 0.024
8,UCGACCUACAGCUUGCAUACUAUUUUCAAA,0.138 ± 0.028
9,UCCUCCUACAGCUUGCAUAGUUAAAUCAAA [g10:g26:cont:t1A],0.0418 ± 0.016
10,UCCUGGAUGAGGUUGCAUUGUAUUUAGUUA,0.016 ± 0.0037
11,UCCUGGAUGAGCUUCGAUAGUAUUUAGUUA,0.00576 ± 0.0029
12,UCCUCCUACAGCUUGCAUAGUAUGUAGUUA,0.172 ± 0.036
13,UCCUGGUACAGCUUCGAUAGUAUUUAGUAA,0.216 ± 0.033
14,UCCUGGAUGUCCUUGCAUAGUAUAUUAGUUA,0.025 ± 0.0089
15,ACCACCUACAGCUUGCAUAGUAUUUUCAAA,0.519 ± 0.073
16,UCCUGGUACAGCUUGCAUAGUAUAUAGAAA,0.343 ± 0.077
17,UCCUGGAUGUCCUUGCAUAGUAUUUAGAAA,0.00711 ± 0.0046
18,UCCUCCUACAGCUUGCAUACAUUUUAGUAA,0.0053 ± 0.0046
19,UCCUGGAUGUCCAUGCAAAGUAUUUAGUUA,0.00607 ± 0.0045
20,UCGACCUACAGCUUCGAUAGUAUUUAGAAA,0.0817 ± 0.02
21,UGGACCUACAGCUUGCAUAGUUUUAGUUA,0.00797 ± 0.0033
22,UCCUGCUACAGCUUGCACUAGUAUUUAGUUA,0.0115 ± 0.0058
23,UCCACCUACAGCUUGCAAUCUAUUUAGUAA,0.131 ± 0.024
24,UCCUGGAUGUCGAACCAUAGAAUUUAGUUA,< 0.0001
